Test results as given in patent publication US7423058B2, “Inhibitors of hepatitis C virus NS3 protease” (Schering Corporation, priority 2004, dated 2008).

Each molecule was assayed against Recombinant heterodimeric HCV NS3/NS4A protease (strain 1a) (Hepatitis C virus genotype 1a, UniProt P27958) (assay: Spectrophotometric assay for HCV protease inhibitory activity (chromogenic ester substrates)). Conditions: Table 3, Esters; read-out: Ki* Range.
Type: biochemical
In the case of `CC(C)(C)OC(=O)CCNC(=O)C(=O)[C@H](CC1CC1)NC(=O)[C@@H]1[C@@H]2[C@H](CN1C(=O)[C@@H](NC(=O)N[C@H](C(=O)OCc1ccccc1)C1CCC1)C(C)(C)C)C2(C)C` [compound 4548], the Ki is reported as 76 to 250 nM.
In the case of `CC(C)(C)OC(=O)CCNC(=O)C(=O)[C@H](CC1CC1)NC(=O)[C@@H]1[C@@H]2[C@H](CN1C(=O)[C@@H](NC(=O)N[C@H](C(=O)OCc1ccccc1)C1CCCC1)C(C)(C)C)C2(C)C` [compound 4549], the Ki is reported as 76 to 250 nM.
With `CC1(C)[C@@H]2[C@@H](C(=O)NC(CC3CC3)C(=O)C(N)=O)N(C(=O)[C@@H](NC(=O)N[C@H](C(=O)OCC3CC3)C3(C(F)(F)F)CC3)C3(C(F)(F)F)CC3)C[C@@H]21` (stereo partly shown) [compound 4550] the Ki was 76 to 250 nM.
Work on `CC(C)(C)[C@H](NC(=O)N[C@H](C(=O)N1C[C@H]2[C@@H]([C@H]1C(=O)NC(CC1CC1)C(=O)C(N)=O)C2(C)C)C(C)(C)C)C(=O)OC1CCCCC1` (stereo partly shown) [compound 4551] yielded a Ki of 76 to 250 nM.
`C=CCNC(=O)C(=O)C(CCC(F)(F)F)NC(=O)[C@@H]1[C@@H]2[C@H](CN1C(=O)[C@@H](NC(=O)N[C@H](C(=O)OCc1ccccc1)C1CCC1)C(C)(C)C)C2(C)C` (stereo partly shown) [compound 4552] showed a Ki of 76 to 250 nM.
For `CNC(=O)C(=O)C(CC1CC1)NC(=O)[C@@H]1[C@@H]2[C@H](CN1C(=O)[C@@H](NC(=O)N[C@H](C(=O)OCc1ccccc1)C(C)(C)C)C(C)(C)C)C2(C)C` (stereo partly shown) [compound 4553], the Ki was 76 to 250 nM.
`C=CCNC(=O)C(=O)C(CC1CC1)NC(=O)[C@@H]1[C@@H]2[C@H](CN1C(=O)[C@@H](NC(=O)N[C@H](C(=O)OC(C)(C)C)C(C)(C)C)C1(C)CCCCC1)C2(C)C` (stereo partly shown) [compound 4554] showed a Ki of 76 to 250 nM.
`CC(C)[C@H](NC(=O)N[C@H](C(=O)N1CC2(C[C@H]1C(=O)NC(CC1CC1)C(=O)C(N)=O)SCCS2)C(C)(C)C)C(=O)OCC1CC1` (stereo partly shown) [compound 4555] gave a Ki of 76 to 250 nM.
With `CC1(C)[C@@H]2[C@@H](C(=O)NC(CC3CCC3)C(=O)C(N)=O)N(C(=O)[C@@H](NC(=O)NC3(C(=O)OCc4ccccc4)CCCCC3)C3CCCCC3)C[C@@H]21` (stereo partly shown) [compound 4556] the Ki was 76 to 250 nM.
In the case of `CC(C)(C)[C@H](NC(=O)NC1(C(=O)OCc2ccc(C(F)(F)F)cc2)CCCCC1)C(=O)N1C[C@H]2[C@@H]([C@H]1C(=O)NC(CC1CC1)C(=O)C(N)=O)C2(C)C` (stereo partly shown) [compound 4557], the Ki is reported as 76 to 250 nM.
`C=CCNC(=O)C(=O)C(CCC)NC(=O)[C@@H]1[C@H]2CC(C)(C)O[C@H]2CN1C(=O)[C@@H](NC(=O)N[C@H](C(=O)OCc1ccco1)C(C)C)C(C)(C)C` (stereo partly shown) [compound 4558] showed a Ki of 76 to 250 nM.
`C=CCNC(=O)C(=O)C(CCCC)NC(=O)[C@@H]1[C@@H]2[C@H](CN1C(=O)[C@@H](NC(=O)N[C@H](C(=O)OC(C)C)C(C)C)C(C)(C)C)C2(C)C` (stereo partly shown) [compound 4559] gave a Ki of 76 to 250 nM.
For `C=CCNC(=O)C(=O)C(CCCC)NC(=O)[C@@H]1[C@@H]2[C@H](CN1C(=O)[C@@H](NC(=O)N[C@H](C(=O)OC(C)C1CC1)C(C)C)C(C)(C)C)C2(C)C` (stereo partly shown) [compound 4560], the Ki was 76 to 250 nM.
For `CC(C)CC(C)(NC(=O)N[C@H](C(=O)N1C[C@H]2[C@@H]([C@H]1C(=O)NC(CC1CC1)C(=O)C(N)=O)C2(C)C)C(C)(C)C)C(=O)OCc1ccccc1` (stereo partly shown) [compound 4562], the Ki was 76 to 250 nM.
With `CC(C)(C)[C@H](NC(=O)NC1(C(=O)OCc2cc[n+]([O-])cc2)CCCCC1)C(=O)N1C[C@H]2[C@@H]([C@H]1C(=O)NC(CC1CC1)C(=O)C(N)=O)C2(C)C` (stereo partly shown) [compound 4563] the Ki was 76 to 250 nM.
`COC(=O)C(C)(C)NC(=O)N[C@H](C(=O)N1C[C@H]2[C@@H]([C@H]1C(=O)NC(CC1CCC1)C(=O)C(N)=O)C2(Cl)Cl)C(C)(C)C` (stereo partly shown) [compound 4565] gave a Ki of 76 to 250 nM.
With `CC(C)(C)OC(=O)[C@H](NC(=O)N[C@H](C(=O)N1C[C@H](Cl)C[C@H]1C(=O)NC(CC1CC1)C(=O)C(N)=O)C(C)(C)C)C(C)(C)C` (stereo partly shown) [compound 4566] the Ki was 76 to 250 nM.
With `CC(C)(C)[C@H](NC(=O)N[C@H](C(=O)N1C[C@H]2[C@@H]([C@H]1C(=O)NC(CC1CC1(F)F)C(=O)C(N)=O)C2(C)C)C(C)(C)C)C(=O)OCc1ccccc1` (stereo partly shown) [compound 4567] the Ki was 76 to 250 nM.
Molecule `CCCCC(NC(=O)[C@@H]1[C@@H]2[C@H](CN1C(=O)[C@@H](NC(=O)N[C@H](C(=O)OC(C)(C)C)C(C)(C)C)C1CCCCC1)C2(C)C)C(=O)C(=O)NCCC#N` (stereo partly shown) [compound 4569] has a Ki of 76 to 250 nM.
`C=CCNC(=O)C(=O)C(CCC)NC(=O)[C@@H]1CC2(CN1C(=O)[C@@H](NC(=O)N[C@H](C(=O)OC(C)(C)C)C(C)C)C(C)(C)C)SCCS2` (stereo partly shown) [compound 4570] was tested, and the Ki was 76 to 250 nM.
`COC(=O)[C@@H](NC(=O)N[C@H](C(=O)N1C[C@H]2[C@@H]([C@H]1C(=O)NC(CC1CCC1)C(=O)C(N)=O)C2(Cl)Cl)C(C)(C)C)C(C)(C)O` (stereo partly shown) [compound 4571] was tested, and the Ki was 76 to 250 nM.
`CC(C)(C)OC(=O)[C@H](NC(=O)N[C@H](C(=O)N1C[C@H](Cl)C[C@H]1C(=O)NC(CC1CCC1)C(=O)C(N)=O)C(C)(C)C)C(C)(C)C` (stereo partly shown) [compound 4572] was tested, and the Ki was 76 to 250 nM.
`C=CCNC(=O)C(=O)C(CCC)NC(=O)[C@@H]1[C@@H]2[C@H](CN1C(=O)[C@@H](NC(=O)N[C@H](C(=O)OCc1ccccc1)C(C)(C)C)C(C)(C)C)C2(C)C` (stereo partly shown) [compound 4573] gave a Ki of 76 to 250 nM.
`C[C@H](NC(=O)C(=O)C(CC1CC1)NC(=O)[C@@H]1[C@@H]2[C@H](CN1C(=O)[C@@H](NC(=O)N[C@H](C(=O)OC(C)(C)C)C(C)(C)C)C(C)(C)C)C2(C)C)c1ccccc1` (stereo partly shown) [compound 4574] gave a Ki of 76 to 250 nM.
Work on `COc1ccc(COC(=O)C2(NC(=O)N[C@H](C(=O)N3C[C@H]4[C@@H]([C@H]3C(=O)NC(CC3CC3)C(=O)C(N)=O)C4(C)C)C(C)(C)C)CCCCCC2)cc1` (stereo partly shown) [compound 4575] yielded a Ki of 76 to 250 nM.
Molecule `C=CCNC(=O)C(=O)C(CCC)NC(=O)[C@@H]1[C@@H]2[C@H](CN1C(=O)[C@@H](NC(=O)N[C@H](C(=O)OCc1ccccc1)[C@@H](C)CC)C(C)(C)C)C2(C)C` (stereo partly shown) [compound 4576] has a Ki of 76 to 250 nM.
For `CCCCC(NC(=O)[C@@H]1[C@@H]2[C@H](CN1C(=O)[C@@H](NC(=O)N[C@H](C(=O)OC(C)(C)C)C(C)(C)C)C1CCCCC1)C2(C)C)C(=O)C(=O)NCCC` (stereo partly shown) [compound 4577], the Ki was 76 to 250 nM.
With `C=CCNC(=O)C(=O)C(CC1CC1)NC(=O)[C@@H]1[C@@H]2[C@H](CN1C(=O)[C@@H](NC(=O)N[C@H](C(=O)OC(C)C)C(C)(C)C)C(C)(C)C)C2(C)C` (stereo partly shown) [compound 4578] the Ki was 76 to 250 nM.
`C=CCNC(=O)C(=O)C(CCCC)NC(=O)[C@@H]1[C@@H]2[C@H](CN1C(=O)[C@@H](NC(=O)N[C@H](C(=O)O[C@@H](C)c1ccccc1)C(C)(C)C)C(C)(C)C)C2(C)C` (stereo partly shown) [compound 4579] gave a Ki of 76 to 250 nM.
`CC(C)(C)[C@H](NC(=O)N[C@H](C(=O)N1C[C@H]2[C@@H]([C@H]1C(=O)NC(CC1CCC1)C(=O)C(N)=O)C2(C)C)C(C)(C)C)C(=O)OC1CCCCC1` (stereo partly shown) [compound 4580] gave a Ki of 76 to 250 nM.
With `COC(=O)C1(NC(=O)N[C@H](C(=O)N2C[C@H]3[C@@H]([C@H]2C(=O)NC(CC2CCC2)C(=O)C(N)=O)C3(Cl)Cl)C2CCCCC2)CCCC1` (stereo partly shown) [compound 4581] the Ki was 76 to 250 nM.
`CC(C)(C)[C@H](NC(=O)NC1(C(=O)OCc2ccccc2)CCCCC1)C(=O)N1C[C@H]2[C@@H]([C@H]1C(=O)NC(CC1CC1(F)F)C(=O)C(N)=O)C2(C)C` (stereo partly shown) [compound 4582] gave a Ki of 76 to 250 nM.
Molecule `COc1ccc(COC(=O)C2(NC(=O)N[C@H](C(=O)N3C[C@H]4[C@@H]([C@H]3C(=O)NC(CC3CC3)C(=O)C(N)=O)C4(C)C)C(C)C)CCCCC2)cc1` (stereo partly shown) [compound 4583] has a Ki of 76 to 250 nM.
`CNC(=O)C(=O)C(CC1CC1)NC(=O)[C@@H]1[C@@H]2[C@H](CN1C(=O)[C@@H](NC(=O)N[C@H](C(=O)O[C@H](C)c1ccccc1)C(C)(C)C)C(C)(C)C)C2(C)C` (stereo partly shown) [compound 4584] showed a Ki of 76 to 250 nM.
`C=CCNC(=O)C(=O)C(CCC)NC(=O)[C@@H]1[C@H]2CC(C)(C)O[C@H]2CN1C(=O)[C@@H](NC(=O)N[C@H](C(=O)OCc1ccco1)C(C)C)C1CCCCC1` (stereo partly shown) [compound 4585] was tested, and the Ki was 76 to 250 nM.
`C=CCNC(=O)C(=O)C(CCCC)NC(=O)[C@@H]1[C@@H]2[C@H](CN1C(=O)[C@@H](NC(=O)N[C@H](C(=O)OC(C)(C)C)C(C)(C)C)C1Cc3ccccc3C1)C2(C)C` (stereo partly shown) [compound 4586] was tested, and the Ki was 76 to 250 nM.
For `CCNC(=O)C(=O)C(CC1CC1)NC(=O)[C@@H]1[C@@H]2[C@H](CN1C(=O)[C@@H](NC(=O)N[C@H](C(=O)OC(C)(C)C)C(C)C)C(C)(C)C)C2(C)C` (stereo partly shown) [compound 4587], the Ki was 76 to 250 nM.
`CC(C)(C)OC(=O)[C@H](NC(=O)N[C@H](C(=O)N1C[C@H](Cl)C[C@H]1C(=O)NC(CC1CC1)C(=O)C(N)=O)C1CCCCC1)C(C)(C)C` (stereo partly shown) [compound 4588] showed a Ki of 76 to 250 nM.
In the case of `CC[C@H](C)[C@H](NC(=O)N[C@H](C(=O)N1C[C@H]2[C@@H]([C@H]1C(=O)NC(CC1CC1)C(=O)C(N)=O)C2(C)C)C1CCCCC1)C(=O)OCc1ccccc1` (stereo partly shown) [compound 4589], the Ki is reported as 76 to 250 nM.
`C=CCNC(=O)C(=O)C(CCCC)NC(=O)[C@@H]1[C@H]2CC(C)(C)O[C@H]2CN1C(=O)[C@@H](NC(=O)N[C@H](C(=O)OC(C)(C)C)C(C)(C)C)C1CCCCC1` (stereo partly shown) [compound 4590] gave a Ki of 76 to 250 nM.
In the case of `CC1(C)[C@@H]2[C@@H](C(=O)NC(CC3CCC3)C(=O)C(N)=O)N(C(=O)[C@@H](NC(=O)NC3(C(=O)OCc4ccccc4)CCCC3)C3Cc4ccccc4C3)C[C@@H]21` (stereo partly shown) [compound 4591], the Ki is reported as 76 to 250 nM.
`CC(C)[C@H](NC(=O)N[C@@H](CC(C)(C)C)C(=O)OCc1ccccc1)C(=O)N1C[C@H]2[C@@H]([C@H]1C(=O)NC(CC1CC1)C(=O)C(N)=O)C2(C)C` (stereo partly shown) [compound 4592] gave a Ki of 76 to 250 nM.
`C=CCNC(=O)C(=O)C(CC1CC1)NC(=O)[C@@H]1[C@@H]2[C@H](CN1C(=O)[C@@H](NC(=O)N[C@H](C(=O)OCc1ccccc1)C(C)(C)C)C(C)(C)C)C2(C)C` (stereo partly shown) [compound 4593] was tested, and the Ki was 76 to 250 nM.
Molecule `COC(=O)C1(NC(=O)N[C@H](C(=O)N2C[C@H]3[C@@H]([C@H]2C(=O)NC(CC2CC2)C(=O)C(N)=O)C3(Cl)Cl)C(C)(C)C)CCCC1` (stereo partly shown) [compound 4594] has a Ki of 76 to 250 nM.
Molecule `CC(C)OC(=O)[C@@H](NC(=O)N[C@H](C(=O)N1C[C@@H]2OC(C)(C)C[C@@H]2[C@H]1C(=O)NC(CC1CC1)C(=O)C(=O)NCCC(=O)OC(C)(C)C)C1CCCCC1)C(C)(C)C` (stereo partly shown) [compound 4595] has a Ki of 76 to 250 nM.
`CCCCC(NC(=O)[C@@H]1[C@H]2CC(C)(C)O[C@H]2CN1C(=O)[C@@H](NC(=O)N[C@H](C(=O)OC(C)C)C(C)(C)C)C(C)(C)C)C(=O)C(=O)NCCC(=O)OC(C)(C)C` (stereo partly shown) [compound 4596] was tested, and the Ki was 76 to 250 nM.
